About 4,300 (8.3%) of roughly 52,000 compounds were called active. Rule as the data show it: active = survival mostly below about 52% (no sharp cut-off); inactive = mostly above about 56%. This is one part of the list.

This assay has as its system DeltatarO mutant. The assay is described as follows: S. aureus survival, RN4220 and DeltatarO strains – OD600, teichoic acid synthesis inhibitors, primary screen (AID 463173). Particulars: S. aureus RN4220 wild type/DeltatarO growth, OD600, 18 h, hits give low values, screened at 18.75 µg/mL (by protocol).
`CCn1cc(C(=O)NCc2ccccc2)c(=O)c2cc(S(=O)(=O)N3CCCCC3)ccc21`: the survival is inactive: 79%.

As to `Cc1ccc(C(NC(=O)Cc2cccs2)C(=O)Nc2ccc(C(C)C)cc2)cc1` (stereo not given), the survival was inactive: 60%.

Take `CN(Cc1ccccc1)S(=O)(=O)c1ccc(F)c(C(=O)Nc2ccccc2C(F)(F)F)c1`: the survival is active: -5%.

Consider `Cc1cccc(-c2nc3c4ccccc4nc(NCc4ccccc4Cl)n3n2)c1`, for which the survival was inactive: 138%.

For the compound `O=C(COc1ccccc1)N(Cc1cccnc1)c1nc2ccc(Cl)cc2s1`, the survival is inactive: 87%.

Consider `Nc1n[nH]c2nc(C(F)(F)F)cc(=O)n12`, for which the survival is inactive: 62%.

On to `CNS(=O)(=O)c1cn(CC(=O)N2CCN(c3ccc(OC)cc3)CC2)cc1S(=O)(=O)NC`, for which the survival was inactive: 69%.

For the compound `O=C1OCc2c1[nH]c(=O)[nH]c2=O`, the survival was inactive: 101%.

In the case of `CCc1cccc(NC(=O)CNS(=O)(=O)c2ccc3nc(C)sc3c2)c1`, the survival was inactive: 68%.

On to `COc1ccc2c(c1)c1c(c(=O)n(-c3cccc(C)c3)c(=O)n1CC(=O)Nc1c(C)cc(C)cc1C)n2C`, for which the survival is inactive: 158%.

For `Cc1cn(C)c(CC(=O)NCc2ccc(F)cc2)c1C(=O)O`, the survival is inactive: 94%.

Consider `Cc1cc(C)cc(NC(=O)CN2C(=O)COc3ccc(S(=O)(=O)Nc4ccccc4)cc32)c1`, for which the survival is inactive: 77%.

On to `CCOC(=O)c1ccccc1NC(=O)CSc1nc2ncccc2o1`, for which the survival is inactive: 72%.

Consider `CCN1CCN(Cc2c(O)ccc3oc(C)c(C(=O)Nc4ccc(OC)c(Cl)c4)c23)CC1`, for which the survival is inactive: 66%.

`CC1=C(c2ccc(C)cc2)S(=O)(=O)N=C1N1CCN(c2ccccc2)CC1`: the survival is inactive: 87%.

As to `CCC(C)NC(=O)c1cn(CC)c2ccc(S(=O)(=O)N3CCCCC3)cc2c1=O` (stereo not given), the survival was inactive: 84%.

For the compound `Cc1ccc(CSC2=Nc3ccccc3C3=NC(CC(=O)NC4CCCCC4)C(=O)N23)c(C)c1` (stereo not given), the survival was inactive: 67%.

Turning to `CCn1c(=Nc2ccc(N3CCOCC3)cc2)ccc2ccccc21`, the survival was inactive: 66%.

With `COc1ccc2nc3sc(C(=O)Nc4cc(Cl)c(OC)cc4OC)cc3cc2c1`, the survival is inactive: 61%.

For the compound `Cc1c(NC(=O)c2cc(-c3cccc(Cl)c3)on2)c(=O)n(-c2ccccc2)n1C`, the survival was inactive: 55%.

On to `O=C(NCCC1=CCCCC1)c1ccc2c(c1)N(Cc1ccc(F)cc1)C(=O)c1ccccc1S2(=O)=O`, for which the survival is inactive: 115%.

Take `O=C(CSc1nncn2c1cc1sccc12)Nc1ccccc1C(F)(F)F`: the survival was inactive: 103%.

In the case of `CCOC(=O)c1c(C)oc2nc(C)nc(NCc3ccc(C)cc3)c12`, the survival is inactive: 76%.

Take `CCN1CCN(Cc2c(O)ccc3c(=O)c(Oc4ccccc4Cl)c(C(F)(F)F)oc23)CC1`: the survival was inactive: 90%.

`COCCCNc1nc2c(-c3ccccc3)nnn2c2ccccc12`: the survival was inactive: 78%.

In the case of `CCOCCCn1c(=N)c(C(=O)NCc2ccco2)cc2c(=O)n3ccccc3nc21`, the survival is inactive: 67%.

With `COc1ccc(CC(=O)NC2CC(=O)N(c3ccc4c(c3)OCCO4)C2)cc1` (stereo not given), the survival was inactive: 107%.

As for `CC(C)NC(=O)c1ccc(Cn2c(=O)c3cccn3c3cccnc32)cc1`, the survival was active: 44%.

As to `Nc1c(C(=O)Nc2cccc(Cl)c2)sc2nc3c(cc12)CN(Cc1ccccc1)CC3`, the survival was inactive: 69%.

Regarding `CCOC(=O)c1c(NC(=O)C(C)Sc2cn(CCNC(=O)c3ccc(OC)c(OC)c3)c3ccccc23)sc2c1CCC2` (stereo not given), the survival is inactive: 127%.

Regarding `CCOCCCn1c(=N)c(S(=O)(=O)c2ccc(C)cc2)cc2c(=O)n3ccccc3nc21`, the survival is inactive: 136%.

Turning to `O=c1oc2ccccc2n1CN1CCCCC1`, the survival was inactive: 95%.

Consider `COc1cccc(N2CCN(C(=O)c3c(C)oc4ncnc(N5CCCCC5)c34)CC2)c1`, for which the survival was inactive: 118%.

As for `Cc1ccc(-c2nnc(Nc3ccc(O)cc3)c3ccccc23)cc1S(=O)(=O)NCc1nc2ccccc2[nH]1`, the survival was inactive: 74%.

As for `COc1cccc(-n2c(=O)c3sc4ccccc4c3n(CC(=O)Nc3ccc(F)cc3F)c2=O)c1`, the survival was inactive: 64%.

Regarding `Cc1ccoc1C(=O)Nc1ccccc1C(=O)O`, the survival is inactive: 96%.

Consider `COc1ccc(N2CC3=C(C2=O)C(c2ccc(Br)cc2)NC(=O)N3C)cc1` (stereo not given), for which the survival is inactive: 121%.

In the case of `Cc1cc(Nc2sc(C(=O)c3ccc(F)cc3)c(N)c2C(=O)Nc2ccc(F)cc2)ccc1Cl`, the survival was inactive: 89%.

As for `Cc1ccc(Cl)cc1N1CCN(CCCNc2ncnc3onc(-c4ccc(F)cc4)c23)CC1`, the survival is inactive: 80%.

With `CC(C)CN(CCCNC(=O)CN1C(=O)COc2ccc(S(=O)(=O)N3CCCCCC3)cc21)CC(C)C`, the survival was inactive: 109%.

`COc1cc(NC(=O)CSc2nc(C)c(C(=O)Nc3ccccc3)c(-c3ccc(OC)c(OC)c3)c2C#N)c(OC)cc1Cl`: the survival was inactive: 61%.

Take `COC(=O)c1ccccc1NC(=O)c1cc2nc(-c3ccccc3)cc(-c3ccccc3)n2n1`: the survival was inactive: 45%.

As for `Cc1cccc(N2CCN(S(=O)(=O)c3ccc4oc(=O)c5ncn(C)c5c4c3)CC2C)c1` (stereo not given), the survival is inactive: 77%.

Take `COc1ccc(N(C(=O)COc2c(C)cccc2C)S(=O)(=O)c2ccc(Cl)cc2)cc1`: the survival is inactive: 73%.

Regarding `CC(NC(=O)c1ccc(-c2ccccc2)cc1)C(=O)O` (stereo not given), the survival was inactive: 97%.

For the compound `Cc1ccccc1C(=O)NCC(c1cccnc1)N1CCc2ccccc21` (stereo not given), the survival is active: 44%.

As for `COc1ccc(NC(=O)C2(c3cccs3)CCOCC2)cc1Cl`, the survival is inactive: 91%.

On to `CCOC(=O)c1c(C)sc(-c2c(-c3ccc4c(c3)OCCO4)[nH]c3c2c(=O)[nH]c(=O)n3C)c1O`, for which the survival was inactive: 106%.

`COc1cc(NC(=O)c2ccco2)c(OC)cc1NC(=O)CSc1ncc(-c2ccc(F)cc2)[nH]1`: the survival was inactive: 96%.

Regarding `COc1ccccc1NC(=O)CCn1nc(-c2ccccc2)c2ccccc2c1=O`, the survival is active: 42%.

`Cc1cc(C)cc(OCc2cc(=O)n3cc(C)sc3n2)c1`: the survival was inactive: 81%.

With `COc1ccccc1N1CCN(c2nc3ccc(C)cc3nc2-n2nc(C)cc2C)CC1`, the survival is active: -5%.

As to `Cc1cccc(NCc2nnc3n2CCCCC3)c1C`, the survival was inactive: 96%.

Consider `CCCN1CCN(CCCNC(=O)c2ccc3c(c2)sc2nc(-c4ccc(C)cc4)cn23)CC1`, for which the survival was active: 18%.

As for `CN(C(=O)c1ccc2c(c1)N(Cc1ccccc1F)C(=O)c1ccccc1S2)C1CCCCC1`, the survival is inactive: 94%.

The values above are taken from PubChem BioAssay AID463173 (ICCB-Longwood Screening Facility, Harvard Medical School, 2010).
